Test results from the supplement of paper PMC3334620.
Whole data set: some 33,000 sequences, median “E-score (-0.5 to 0.5)” near -0.016, cut for the highest 2% near 0.32. Some of the results follow.

These sequences were tested against T1, Stp1 (UniProt B3LFK1) (assay: PBM E-score (8-mer binding enrichment) (E-score (-0.5 to 0.5)); higher = stronger / more preferred TF binding; most listed sequences are background and not binding sites). Conditions: protein concentration: 200 nM; construct: GST-full length.
T1 sequence: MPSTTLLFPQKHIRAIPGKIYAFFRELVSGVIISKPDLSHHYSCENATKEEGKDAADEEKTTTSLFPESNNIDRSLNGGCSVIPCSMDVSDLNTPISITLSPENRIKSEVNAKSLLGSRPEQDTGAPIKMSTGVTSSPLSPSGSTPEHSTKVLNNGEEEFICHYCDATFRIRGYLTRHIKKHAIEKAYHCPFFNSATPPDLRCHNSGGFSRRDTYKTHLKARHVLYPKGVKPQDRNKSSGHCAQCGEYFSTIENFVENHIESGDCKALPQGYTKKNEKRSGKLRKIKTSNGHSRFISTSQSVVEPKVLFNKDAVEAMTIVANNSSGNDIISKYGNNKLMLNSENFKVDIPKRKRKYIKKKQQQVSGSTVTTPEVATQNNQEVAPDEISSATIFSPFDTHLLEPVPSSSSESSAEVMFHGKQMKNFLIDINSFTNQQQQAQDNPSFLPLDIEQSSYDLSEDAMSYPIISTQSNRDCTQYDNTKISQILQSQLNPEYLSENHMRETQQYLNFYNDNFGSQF
Procedure, shortened: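 Universal all-10-mer Agilent arrays, fresh or stripped once, were converted to double-stranded form by primer extension. GST-tagged yeast transcription factors from PURExpress in vitro transcription/translation, full-length or DNA-binding domain only, were applied at about 100-200 nM and detected with fluorescent anti-GST. After masliner normalisation, the Universal PBM Analysis Suite scored each ungapped eight-base word together with its reverse complement by E-score.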

Sequence | PBM E-score
CTATAATA | 0.0295
AGGGGTAT | -0.345
CAAGCATA | -0.096
CAAGTTCA | 0.00049
GATTATGA | 0.108
CTGCAGAA | 0.0969
CCGTTCGA | 0.279
CGCGGCTC | 0.464
GCTTCGGA | -0.0775
AGCTGGTG | -0.105
CATTTAGG | -0.116
ATACAGAA | 0.196
CATGGCGG | 0.101
CCGTGGCG | 0.209
CCTTAAAG | 0.0532
GAATTGTA | 0.0648
CTTGCAAA | 0.184
AGAAACAA | 0.274
CATAACCC | -0.0547
AACCACGA | -0.0322
CAGATGCA | -0.293
ATAATCGC | 0.137
GTTGGGTA | -0.109
CCCAAGGC | 0.282
GGAGGCTA | -0.192

Sequence | PBM E-score
ACCGGTTA | 0.018
ACATTAAG | 0.034
CCCGCCGA | -0.0885
AATTTTAC | 0.222
ACCACGGG | -0.0439
GTGTTATA | 0.123
CCAAAAAG | -0.00139
AAAATCCT | -0.0486
ATGCCCGG | -0.208
CCTGGATA | -0.149
GATCGGCC | 0.0645
CACTTTTC | 0.0895
GTATGCAC | -0.0406
ACCTTTTA | -0.0684
CCGCCGCG | 0.437
ATCCTTTG | 0.0358
GATTGTGC | 0.219
CCTGCCGC | 0.226
TCGGTAAA | 0.0119
TAAGTTAA | 0.0595
ACATCGCG | -0.0486
CGTCAACG | -0.115
ACCAGCTC | -0.142
GCTGCCAC | 0.0537
AAGGACAT | 0.0391

Sequence | PBM E-score
GAAAAATA | 0.159
AGTCTCCG | 0.0695
AGATACTC | -0.134
ACTGACGA | -0.0286
ACAGGCCG | -0.0606
AGGAGCCA | -0.164
AACACTCA | 0.0656
TGGTGGAA | -0.116
GCAGTGTA | 0.142
GAGTACTC | -0.215
AACCAGTG | -0.174
CGAAGCAG | -0.149
ACAGCTGG | -0.193
TTCCTCAA | -0.0575
ACCAAAGT | -0.0235
GTAAAAGA | 0.0346
GAACCTTC | -0.0367
GAAAGCGC | 0.0424
ATGGCGTG | 0.102
ATACCACG | 0.113
AGATTCGC | 0.0641
CACTGCAG | -0.0936
CCTAGACG | -0.0382
CTAATTTA | 0.256
CACTTTAA | -0.0213

Sequence | PBM E-score
CGTGTACA | 0.122
CAATCTAG | 0.0836
CAACCGGA | -0.0392
CACAGAGA | -0.0444
AAGCCCAA | -0.0515
GCGTGACC | 0.0164
GAATATTC | 0.214
CGGTAAAA | 0.128
GACCTGCC | -0.172
CCTTCCTC | -0.225
CACTAACG | -0.00477
AGTATTAC | 0.0906
CGATCCGC | 0.123
ACTCGGGA | -0.21
AACGTGGC | 0.149
CACAAGGC | 0.249
CAGGAGTC | -0.101
CCTGGCTA | -0.107
AGAAATGG | -0.0513
AGTTACTG | -0.0577
CCCTCAGG | -0.224
ACTGAAAT | 0.138
ATGATGTC | -0.167
CACATGTG | -0.00297
CATCAACA | 0.123

Sequence | PBM E-score
AGACTGGA | -0.146
AATGTCCG | 0.0749
TGAGCTCA | 0.0398
AAGGATCA | -0.00163
AACTTTAA | 0.149
TAGCTGGA | -0.384
ATGAAGAC | 0.0861
GAATGTCC | -0.0798
ATGCGTGC | 0.137
GAAAGCCA | -0.172
CTGTCACA | 0.0144
AAAAATTA | 0.27
ATGAGTTG | -0.0406
GGGAGCTA | -0.235
CGTACGCC | 0.233
ATAAGGCA | 0.299
CTCGTGGA | -0.152
GAGCGTGA | -0.0524
CGAAAAGA | 0.184
AAATCGCC | 0.304
CACAGTTA | 0.058
CAATCAAG | 0.00135
ATGTAGAA | -0.0668
ATGTCACC | -0.0379
CGTACACA | 0.113

Sequence | PBM E-score
TGCGATAA | 0.0863
ACGATACC | -0.0468
AAGCAGAT | 0.0402
CGTGTCTC | 0.037
ATCCCGCG | 0.225
CGTTGCTC | 0.0478
GTTGTAGA | 0.131
TGCAAACA | -0.154
ACTAGGCG | 0.258
CGAATCGA | 0.242
AAAATATT | 0.135
GCTCTCCC | -0.267
CATTAAAC | 0.0805
CGATTTAA | 0.11
CAGGGATG | -0.13
CTGTAACC | 0.0613
AATGGGGC | 0.0987
AGTGGACC | -0.286
ATGTCCGA | -0.154
GAGTAACA | 0.144
CATAAATC | 0.121
GATTTGGA | -0.111
GGGAGGGA | -0.259
ATTATGCA | 0.0102
AAAGCATG | -0.0619

Sequence | PBM E-score
CCGGGAAA | -0.125
TACCTCAA | -0.169
GCATTCCC | -0.127
CACCCTGC | -0.105
ACGGAAGC | 0.0748
AAGGGTCA | -0.161
ATCTTCTA | -0.02
AAAGCAGA | 0.0506
GACCAACC | -0.152
CAAGAGGA | -0.0502
ATCAACTA | 0.195
ACATACCC | -0.00954
GCAAAGGA | 0.0118
ATATTCCC | -0.123
GAATTGCC | 0.115
ACATGATC | 0.133
TTGTGAAA | 0.106
AAGGTTTA | -0.217
CGCCAGCG | -0.00723
AGCGACGG | 0.175
ACGAGCAG | 0.0182
CGCCAGGA | -0.138
